This is one part of the list. The data describe in vitro nicking of single-stranded DNA by Rep domains (1 h at 37 °C, 3 µM enzyme); the outer parts of the 90-letter strands are left off. Uncut reads are compared with the no-enzyme pool on a log2 scale; strong cutting gives strongly negative numbers. There is no active / inactive call. Reads are scaled to the total; values above 0 arise when much of the pool is cut.
What was measured:
Assay in all cases: uncleaved DNA left, log2 of reads against the no-enzyme library (log2 ratio); higher = less cleavage (more negative = more Rep cleavage of the k-mer); sequences stand for … in CTCGTCCG…ACCGGAGA
[1] = tested on: T1, Rep nickase domain of Muscovy duck circovirus
T1 sequence (residues 1-111 of Rep, tag left off): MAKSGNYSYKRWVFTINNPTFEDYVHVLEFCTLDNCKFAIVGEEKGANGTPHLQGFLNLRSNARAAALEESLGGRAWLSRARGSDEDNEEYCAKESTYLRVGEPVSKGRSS
Procedure: (§1)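 A pool of 90-nt single-stranded DNAs with seven random bases just before the constant AC of the nick site (name = the seven bases) was cut by 3 µM recombinant His6-SUMO-tagged Rep nickase domain (300 nM DNA, 50 mM HEPES pH 8.0, 50 mM NaCl, 1 mM MnCl2, 1 h, 37 °C, three replicates). Uncut DNA was amplified and sequenced.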

[2] = tested on: T2, Rep nickase domain of banana bunchy top virus
T2 sequence (residues 1-94 of Rep, tag left off): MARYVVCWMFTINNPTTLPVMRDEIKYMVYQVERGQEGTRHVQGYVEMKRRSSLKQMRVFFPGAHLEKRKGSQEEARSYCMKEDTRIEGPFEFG
Procedure: as §1

[3] = tested on: T3, Rep nickase domain of cabbage leaf curl virus
T3 sequence (residues 1-116 of Rep, tag left off): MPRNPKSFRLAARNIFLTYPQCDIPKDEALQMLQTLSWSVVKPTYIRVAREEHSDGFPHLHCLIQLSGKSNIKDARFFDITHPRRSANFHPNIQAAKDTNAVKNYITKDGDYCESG
Procedure: as §1

[4] = tested on: T4, Rep nickase domain of chickpea chlorotic dwarf virus
T4 sequence (residues 1-124 of Rep, tag left off): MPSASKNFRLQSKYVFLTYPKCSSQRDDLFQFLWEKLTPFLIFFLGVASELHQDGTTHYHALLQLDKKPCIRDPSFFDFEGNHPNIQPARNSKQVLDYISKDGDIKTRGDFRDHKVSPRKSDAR
Procedure: as §1

[5] = tested on: T5, Rep nickase domain of faba bean necrotic yellows virus
T5 sequence (residues 1-98 of Rep, tag left off): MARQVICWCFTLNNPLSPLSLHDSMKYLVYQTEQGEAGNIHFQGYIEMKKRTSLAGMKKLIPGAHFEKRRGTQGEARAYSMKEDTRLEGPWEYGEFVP
Procedure: as §1

[6] = tested on: T6, Rep nickase domain of maize striate mosaic virus
T6 sequence (residues 1-117 of Rep, tag left off): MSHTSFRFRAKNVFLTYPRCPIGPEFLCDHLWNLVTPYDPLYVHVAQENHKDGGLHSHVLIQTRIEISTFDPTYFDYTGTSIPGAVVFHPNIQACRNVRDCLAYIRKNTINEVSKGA
Procedure: as §1

[7] = tested on: T7, Rep nickase domain of porcine circovirus 2
T7 sequence (residues 2-116 of Rep, tag left off): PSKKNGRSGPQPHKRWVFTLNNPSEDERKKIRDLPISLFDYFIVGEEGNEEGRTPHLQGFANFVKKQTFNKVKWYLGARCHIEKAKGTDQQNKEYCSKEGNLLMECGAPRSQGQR
Procedure: as §1

[8] = tested on: T8, Rep nickase domain of tomato golden mosaic virus
T8 sequence (residues 1-124 of Rep, tag left off): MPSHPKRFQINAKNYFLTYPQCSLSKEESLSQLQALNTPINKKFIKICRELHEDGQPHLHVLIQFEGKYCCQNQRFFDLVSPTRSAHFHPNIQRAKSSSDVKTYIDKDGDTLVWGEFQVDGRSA
Procedure: as §1

[9] = tested on: T9, Rep nickase domain of tomato yellow leaf curl virus
T9 sequence (residues 1-136 of Rep, tag left off): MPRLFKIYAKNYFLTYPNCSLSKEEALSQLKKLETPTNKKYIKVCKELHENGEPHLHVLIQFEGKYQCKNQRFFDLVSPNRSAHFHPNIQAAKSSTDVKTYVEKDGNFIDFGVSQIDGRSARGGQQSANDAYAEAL
Procedure: as §1

[10] = tested on: T10, Rep nickase domain of wheat dwarf virus
T10 sequence (residues 1-137 of Rep, tag left off): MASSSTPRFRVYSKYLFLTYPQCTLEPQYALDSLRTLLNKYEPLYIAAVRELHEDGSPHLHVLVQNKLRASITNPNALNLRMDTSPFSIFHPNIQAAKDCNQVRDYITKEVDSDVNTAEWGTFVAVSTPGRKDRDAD
Procedure: as §1

Sequence	uncleaved DNA left (log2) [1]	uncleaved DNA left (log2) [2]	uncleaved DNA left (log2) [3]	uncleaved DNA left (log2) [4]	uncleaved DNA left (log2) [5]	uncleaved DNA left (log2) [6]	uncleaved DNA left (log2) [7]	uncleaved DNA left (log2) [8]	uncleaved DNA left (log2) [9]	uncleaved DNA left (log2) [10]
GGGTGCG	-0.00272	-0.0116	-0.174	0.994	0.0666	0.742	0.0882	0.0684	-0.117	-0.0725
ATACCAG	-0.065	0.0365	-0.348	-0.352	0.105	-0.97	-0.0196	0.0507	0.0158	-0.0109
GACCGTC	-0.0484	-0.122	0.0733	0.135	-0.0521	0.0491	0.0359	-0.0414	-0.133	-0.135
CCCCTTT	0.0262	0.0222	-0.112	-1.97	0.0875	-0.516	-0.402	-0.0622	0.0193	0.00546
CCCAATC	0.124	-0.132	-0.226	-0.16	0.0469	-0.386	0.186	-0.0145	-0.0256	-0.0242
GAGGCCT	0.0606	0.186	0.683	0.74	0.142	1.82	-0.805	0.188	0.13	0.207
CGAGGTC	0.197	0.198	0.364	0.564	0.0636	0.377	0.0258	0.215	0.106	0.14
CGTCCCC	-0.0959	0.00216	0.128	0.148	-0.0843	0.00895	-0.245	-0.231	-0.0191	-0.0121
CGCAGAT	0.0825	0.0329	0.37	0.687	0.0613	0.951	0.136	0.0718	-0.169	0.125
TTCCTAA	-0.0612	-0.00944	0.241	0.079	0.0606	0.097	0.0681	0.048	0.121	0.178
ATCGGCT	0.0801	0.0656	-0.105	-0.181	0.0511	-0.197	0.0719	0.0427	0.0841	0.0635
TGCACGC	-0.0884	-0.0428	-0.0823	-0.0597	-0.09	-0.296	-0.023	-0.216	-0.0151	0.00624
AGACGAC	0.187	0.193	0.228	0.732	0.186	1.1	0.192	0.121	0.0637	0.135
CGCGTCC	-0.00409	0.0287	-0.0069	-0.0993	0.0301	-0.305	-0.0615	-0.121	0.0595	0.0429
GGTATAA	0.0554	0.00668	0.415	1.13	-0.0602	1.73	0.0835	0.0407	0.0979	0.124
GCAGAAA	0.0464	0.133	0.244	0.53	0.0415	0.0964	0.229	0.158	0.0237	0.0667
CCACGGA	-0.176	-0.215	0.0164	0.0983	-0.141	-0.268	0.0887	-0.00201	-0.0635	-0.0149
CCCCAAT	0.0388	-0.0865	0.106	-0.5	-0.168	-0.694	-0.174	-0.119	-0.0613	-0.0344
TATACTT	-2.63	-3.2	-2.18	-3.09	-0.1	0.0166	-3.5	-0.29	-0.201	-0.288
TTTGCGC	-0.0219	-0.0853	-0.739	0.79	0.0327	-0.0738	0.0378	-0.251	0.112	0.0018
GACTTTG	-0.106	-0.167	-0.257	-0.0922	-0.224	-0.498	-0.24	-0.131	-0.162	-0.177
TAGGAAA	0.0782	0.0855	0.541	1.01	0.0238	1.38	0.0441	0.21	0.0969	0.256
GGGGTTT	0.0476	0.0928	0.738	1.65	-0.0121	2.12	0.107	0.0349	0.0177	0.066
ATCTCAG	-0.0656	-0.123	-0.767	-0.679	-0.0664	-1.36	0.047	-0.0542	-0.0484	-0.182
GAATCAA	0.0055	0.126	0.212	0.619	0.0731	1.04	0.0684	0.0713	0.235	0.174
GCCTTGG	0.0509	0.0716	-0.191	0.169	0.00872	-0.519	0.0726	0.047	0.024	-0.0148
CATCTCT	-0.203	-0.14	-0.308	-2.73	-0.0794	-0.26	-0.437	-0.0918	-0.102	-0.164
ACTAGCA	-0.073	0.0528	-0.799	-0.998	0.0118	-1.18	-0.00312	-0.00517	0.0803	-0.0636
ACGGGGT	-0.0261	-0.177	0.191	0.562	-0.106	0.772	0.175	0.0519	-0.0756	-0.0525
AGATGGT	-0.246	0.0192	-0.0389	0.522	-0.0824	1.09	-1.6	0.101	-0.105	-0.137

From the supplement of paper PMC7826260
